In PubChem BioAssay AID504832 (National Center for Advancing Translational Sciences (NCATS), 2011):
In all, about 310,000 compounds went through this assay and about 18,000 (5.8%) were called active. Inconclusive means that the source gave no clear call. Such entries were picked first, then a sample of the others. The call rests on the fitted dose curve; in most records, active means well fitted inhibition curve with a large enough effect; inconclusive means small, poorly fitted or top-dose-only effect, or another doubt; inactive means no such curve, though single readings can be large or run the other way. No potency is given beside an inconclusive call; the fits are too rough.

Assay: Primary qHTS for delayed death inhibitors of the malarial parasite plastid, 48 hour incubation
Conditions: P. falciparum luciferase growth in erythrocytes; series mostly up to 28.7 µM; activity change, negative = inhibition: at the top concentration
How it was run: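 Erythrocytes infected with P. falciparum carrying an integrated firefly luciferase reporter (2% hematocrit, 0.1% parasitemia final) were exposed to compounds in RPMI 1640 with 0.5% Albumax at 37 C, 5% CO2. Growth inhibition was scored as reduced luminescence.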
On the % scale 0 is the no-effect control and ±100 the full control effect; potency means the concentration at half of the fitted maximal effect; tags describe the fitted curve by direction and shape.

| Compound | Potency | activity change, negative = inhibition |
| --- | --- | --- |
| Cc1ccc(-c2nc(Nc3ccc(N4CCOCC4)cc3)c3ccccc3n2)cc1 | active: 13.1 µM | – |
| Cn1c(=O)c2c(SCc3cccc(C(F)(F)F)c3)nc(-c3ccco3)nc2n(C)c1=O | inconclusive [inhibitor, single point] | – |
| CCn1c(=O)c([N+](=O)[O-])c(NCCCn2ccnc2)c2ccccc21 | – | inactive: 15.9% |
| O=S(=O)(c1ccc(F)cc1)N1CCCN(c2nccc(C(F)(F)F)n2)CC1 | – | inactive: -13.4% |
| CC(C)(C)C1CCC2(CC1)CC(=O)c1ccccc1O2 (stereo unspecified) | inconclusive [inhibitor, single point] | – |
| Cc1ccc(Cl)cc1N1CCN(C(=O)c2ccc(CN3CCOCC3)cc2)CC1 | inconclusive [inhibitor, single point] | – |
| COc1cccc(-c2nc(CS(=O)(=O)CC(=O)NCCC(C)C)c(C)o2)c1 | – | inactive: -0.012% |
| CCOc1cccc(C(=O)Nc2cccc(C(=O)NCC(C)C)c2)c1 | inconclusive [inhibitor, single point] | – |
| CC(C)n1nc(C(=O)NNC(=O)c2ccc(OC(F)F)cc2)c2ccccc2c1=O | inconclusive [inhibitor, single point] | – |
| CCOc1cc(N2CCOCC2)c(OCC)cc1NC(=O)c1ccc(C)s1 | inconclusive [inhibitor, partial curve, poor fit] | – |
| CCCCCC(O)(CCN1CCCCC1)c1ccccc1 (stereo unspecified) | inconclusive [inhibitor, single point] | – |
| CC(=O)Oc1ccc(-c2ccc(C(=O)Nc3cccc(S(=O)(=O)N4CCOCC4)c3)cc2)cc1 | inconclusive [inhibitor, partial curve] | – |
| CCC(CC)NC(=O)COC(=O)c1ccc(NS(=O)(=O)c2ccc3c(c2)OCCO3)cc1 | – | inactive: -4.03% |
| COc1cc(NS(=O)(=O)c2ccc(NS(=O)(=O)c3ccc(NC(C)=O)cc3)cc2)nc(OC)n1 | – | inactive: 21.3% |
| O=C(CCc1nnc2ccc(NCc3ccco3)nn12)N1CCCCC1 | – | inactive: -1.3% |
| Cc1ccc(N2CC(C(=O)OCc3nnc(-c4ccccc4)o3)CC2=O)cc1 (stereo unspecified) | – | inactive: 39.5% |
| COC(=O)C1=C(c2ccc(F)cc2OCc2ccccc2)C[C@@H]2CC[C@H]1N2C(=O)NCC1CC1 | active: 10.4 µM | – |
| CCCN(CC1CC1)C(=S)NC(=O)c1ccc(S(=O)(=O)N2CCOCC2)cc1 | inconclusive [inhibitor, single point] | – |
| O=C1c2cccnc2C(=O)N1Cc1ccc(S(=O)(=O)N2CCOc3ccccc32)cc1 | – | inactive: 12.9% |
| Cc1ccc2c(c1)N(C(=O)CCC(=O)N1CCN(c3ccccc3)CC1)CCO2 | – | inactive: -16% |
| O=C1C(NS(=O)(=O)c2cccs2)=C(N2CCN(c3cccc(Cl)c3)CC2)C(=O)c2ccccc21 | active: 11.7 µM | – |
| CCC(C)(C)NC(=O)C(c1cccc(OC)c1)N(C(=O)CNC(=O)c1cccs1)c1cccnc1 (stereo unspecified) | inconclusive [inhibitor, single point] | – |
| CCOC(=O)CN1C(=O)CSc2ccccc21 | inconclusive [inhibitor, full curve, poor fit] | – |
| CC(C)CNC(=O)c1ccccc1NC(=O)c1ccccc1N(C)S(C)(=O)=O | – | inactive: -10.4% |

| Compound | Potency | activity change, negative = inhibition |
| --- | --- | --- |
| O=C(CCCc1ccccc1)Nc1ccc2c(c1)OCCO2 | – | inactive: 126% |
| CCOC(=O)CNC(=O)CSc1nc(-c2ccc(C)cc2)ns1 | – | inactive: 34.7% |
| c1ccc(-c2nc(N3CCCCCC3)nc(-n3ccnc3)n2)cc1 | inconclusive [inhibitor, partial curve, poor fit] | – |
| CCOC(=O)c1cc2sc(C)cc2n1CC(=O)N1CCN(C(=O)c2ccco2)CC1 | inconclusive [inhibitor, partial curve] | – |
| Cc1nc2c(-c3ccc(F)cc3)c(C)nn2c(C)c1CCC(=O)Nc1ccccc1F | inconclusive [inhibitor, partial curve] | – |
| CC1CCCC(NC(=O)CN2C(=O)NC(c3ccccc3)(c3ccccc3)C2=O)C1C (stereo unspecified) | active: 14.7 µM | – |
| COc1cccc(NC(=O)c2cc([N+](=O)[O-])ccc2N2CCN(C)CC2)c1 | inconclusive [inhibitor, single point] | – |
| O=C(Nc1ccccc1C(=O)Nc1ccncc1)c1ccc([N+](=O)[O-])cc1 | inconclusive [inhibitor, partial curve] | – |
| CC(=O)Nc1ccc(CN2CCCC(C(=O)c3ccc(C(F)(F)F)cc3)C2)cc1 (stereo unspecified) | inconclusive [inhibitor, partial curve] | – |
| Cc1sc(NC(=O)c2ccco2)c(C(c2cccnc2)N2CCC(C)CC2)c1C (stereo unspecified) | active: 1.85 µM | – |
| C=CCn1c(O)c(C(C)=Nc2ccc(N(CC)CC)cc2)c(=O)[nH]c1=O | inconclusive [inhibitor, single point] | – |
| O=C(Nc1cc(C(F)(F)F)ccc1N1CCOCC1)C1=COCCO1 | – | inactive: -1.7% |
| COc1ccc2[nH]c(C)c(C(=O)CN3CCN(C/C=C/c4ccccc4)CC3)c2c1 | inconclusive [inhibitor, single point] | – |
| CC(C)Cc1nn2c(N)c(/C=C3\C=Nc4ccccc43)c(=O)nc2s1 | inconclusive [inhibitor, partial curve] | – |
| COc1ccc(C(=O)NCC2(c3ccccc3)CCOCC2)cc1 | – | inactive: 27.3% |
| COc1ccc2[nH]cc(CCNC(=O)Cc3ccc(Br)cc3)c2c1 | – | inactive: -14.2% |
| O=C(CCl)N(c1ccccc1)c1ccccc1 | active: 1.65 µM | – |
| Cc1ccc(N2CC(C(=O)Nc3c4c(nn3C(C)(C)C)CS(=O)(=O)C4)CC2=O)cc1 (stereo unspecified) | – | inactive: 10.2% |
| COc1ccc2c(c1)C(=NN)c1cc(OC)ccc1-2 | inconclusive [inhibitor, full curve, poor fit] | – |
| CC(=O)N1CCN(c2nc3ccc(Br)cc3s2)CC1 | – | inactive: 84.7% |
| Cc1ccc(C)c(N2CCN(S(=O)(=O)c3ccc(-c4ccc(=O)[nH]n4)o3)CC2)c1 | inconclusive [inhibitor, full curve] | – |
| C=CCOC(=O)C1=C(C)NC(SCC(=O)N(CC)CC)=C(C#N)C1c1ccco1 (stereo unspecified) | active: 13.1 µM | – |
| COc1cccc(C(=O)C2CCCN(Cc3cccc(C)n3)C2)c1 (stereo unspecified) | active: 2.94 µM | – |
| COc1cc2[nH]c(=S)nc(NCC3CCCO3)c2cc1OC (stereo unspecified) | inconclusive [inhibitor, full curve, poor fit] | – |

| Compound | Potency | activity change, negative = inhibition |
| --- | --- | --- |
| O=C(Nc1ccc(Cl)cc1)Nc1ccc(-c2cnco2)cc1 | inconclusive [inhibitor, partial curve] | – |
| N#Cc1ccc(OCC(=O)N2CCCC2=O)cc1 | inconclusive [inhibitor, single point] | – |
| Cc1[nH]c2ccccc2c1C(=O)COC(=O)c1c(-c2c(F)cccc2Cl)noc1C | inconclusive [inhibitor, single point] | – |
| Cc1cc(C(=O)Nc2ccc(C)c(C)c2)n(-c2ccccc2)n1 | – | inactive: -7.58% [at 0.00184 µM] |
| O=C(O)c1ccc2c(c1)C(=O)N(c1ccccc1-c1ccccc1)C2=O | – | inactive: 11.8% |
| CC12CCC(C(=O)N(NC(=O)c3ccc(O)cc3)C1=O)C2(C)C (stereo unspecified) | inconclusive [inhibitor, partial curve, poor fit] | – |
| CCCC(=O)N1CCN(c2ccc(NC(=O)c3ccccc3)cc2)CC1 | inconclusive [inhibitor, partial curve] | – |
| COC(=O)C1=C(N)Oc2cc(C)n(CCc3ccccc3)c(=O)c2C1c1cccnc1 (stereo unspecified) | active: 10.4 µM | – |
| COc1ccc(C(=O)c2sc(Nc3ccccc3)c(C(=O)Nc3ccc(OC)c(OC)c3)c2N)cc1 | active: 13.1 µM | – |
| COCCn1c(N)c(C(=O)OCc2ccccc2)c2nc3ccccc3nc21 | inconclusive [inhibitor, single point] | – |
| O=C(CCCn1c(SCC(=O)NC2CCCCC2)nc2ccccc2c1=O)NCC1CCCO1 (stereo unspecified) | inconclusive [inhibitor, single point] | – |
| CCOC(=O)C1=C(C)OC(N)=C(C#N)C1c1c(C)nn(-c2ccccc2)c1Cl (stereo unspecified) | inconclusive [inhibitor, single point] | – |
| Cn1c(CCNC(=O)c2ccco2)nc2cc(NS(=O)(=O)c3ccc(Cl)cc3)ccc21 | inconclusive [inhibitor, partial curve] | – |
| O=C(Nc1cccc(Cl)c1)c1ccc(F)c(S(=O)(=O)NCc2ccc3c(c2)OCO3)c1 | – | inactive: -7.11% |
| O=C(NCCc1cccs1)c1ccc(Cl)cc1 | – | inactive: 92% |
| CCOC(=O)CC1=NN(c2ccccc2)C(=O)C1 | – | inactive: -9.79% |
| NC(CC(=O)NC(c1ccccc1)(c1ccccc1)c1ccccc1)C(=O)O (stereo unspecified) | – | inactive: 12.8% |
| O=C1CCc2cc(S(=O)(=O)Nc3ccc(C(F)(F)F)cc3)cc3c2N1CC3 | inconclusive [inhibitor, single point] | – |
| COc1ccc(-n2c3c(c(=O)[nH]c2=O)C(C(F)(F)F)(C(F)(F)F)N=C(CC(C)C)N3)cc1 | inconclusive [inhibitor, partial curve] | – |
| O=C1[C@H]2[C@@H](c3ccc(F)cc3)N3C(=O)N(c4cccc(F)c4)C(=O)[C@@]3(Cc3ccccc3)[C@H]2C(=O)N1C1CCCCC1 | inconclusive [inhibitor, single point] | – |
| CCOc1ccc(NC(=O)C2CC(=O)OC2c2ccccc2)cc1 (stereo unspecified) | – | inactive: 23.9% |
| Cc1cc(SCC(=O)c2ccc(O)c(O)c2)nc2ccccc12 | – | inactive: 8.31% |
| CC(C)COP(=O)(OCC(C)C)C(Nc1ccccc1)c1ccc2c(c1)OCO2 (stereo unspecified) | inconclusive [inhibitor, partial curve] | – |
